Data published in the supplement of paper PMC9334596.
Values joined by “and” are separate entries in the source; they are usually repeats but may differ in a detail not shown here. Equal values may be shown once. In all, about 5,300 compounds were measured (“PER2::LUC luminescence relative to vehicle control”: median about 0.96, highest 2% from about 1.3 on). The list shows a part of the results.

Test system: mPer2Luc MEF
Test: PER2::LUC luminescence relative to vehicle control (fold of vehicle); higher = higher PER2::LUC reporter signal
Conditions: 10 µM
Summary of the method: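 In 384-well plates, ~3000 mPer2Luc reporter mouse embryonic fibroblasts per well were cultured in DMEM with 10% FBS at 37 °C and 5% CO2 for 48 h before compounds from commercial libraries were added at 10 μM. ONE-Glo luciferase readings were taken 24 h and 30 h after treatment. Each value is PER2::LUC luminescence given as fold of vehicle control.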

| Structure (SMILES) | PER2::LUC luminescence (time after treatment 24 h) | PER2::LUC luminescence (time after treatment 30 h) |
| --- | --- | --- |
| CCC(=O)Oc1ccc2c(c1)CC[C@@H]1[C@@H]2CC[C@]2(C)[C@@H](OC(=O)CC)CC[C@@H]12 | 1.04 | 0.909 |
| CC1(O)CCC(C(C)(C)O)CC1 (centres undefined) | 0.901 and 0.99 | 0.986 and 0.688 |
| CCOC(=O)n1ccn(C)c1=S | 1.14 | 0.86 |
| NC(=O)[C@H]1CCCCc2c1[nH]c1ccc(Cl)cc21 | 1.19 | 1.11 |
| COc1cc(O)c2c(c1)C(=O)c1cc(C)cc(O)c1C2=O | 0.928 | 0.907 |
| CC(C)[C@H]1c2ccc(F)cc2CC[C@@]1(CCN(C)CCCc1nc2ccccc2[nH]1)OC(=O)C1CC1 | 0.499 | 0.431 |
| CCCC1O[C@@H]2C[C@H]3[C@@H]4CCC5=CC(=O)C=C[C@]5(C)[C@H]4[C@@H](O)C[C@]3(C)[C@]2(C(=O)CO)O1 (some centres undefined) | 0.646 | 1.22 |
| NCCC1CCCC(CCN)N1 (centres undefined) | 0.959 | 1.08 |
| CNC(=O)[C@@H](c1ccccc1)N1CCc2cc(OC)c(OC)cc2[C@@H]1CCc1ccc(C(F)(F)F)cc1 | 0.859 | 0.871 |
| COc1cc(C(C)=O)ccc1OCCCN1CCC(c2noc3cc(F)ccc23)CC1 | 0.924 | 0.863 |
| CCOC(=O)[C@H](CCc1ccccc1)N[C@H]1CCCN2CCC[C@@H](C(=O)O)N2C1=O | 1.24 | 1.13 |
| CCOc1ccc(Cc2cc([C@]34OC[C@](CO)(O3)[C@@H](O)[C@H](O)[C@H]4O)ccc2Cl)cc1 | 1.05 | 1.06 |
| CN1[C@@H]2CC[C@H]1CC(OC(=O)c1c[nH]c3ccccc13)C2 (some centres undefined) | 0.775 | 0.9 |
| CCCCCCCCCCCCCCCCCCOCC(COP(=O)([O-])OCC[N+](C)(C)C)OC (centres undefined) | 0.911 | 0.947 |
| COc1cccc(-c2ccc([C@@H](Oc3cc(-c4ccc(C[C@H](N)C(=O)O)cc4)nc(N)n3)C(F)(F)F)cc2)c1 | 1.01 | 0.971 |
| COc1cc(C(O)CO)ccc1OS(=O)(=O)O (centres undefined) | 1.07 | 0.824 |
| CC(C)c1c(O)ccc2c1CC[C@H]1C(C)(C)CCC[C@]21C | 0.774 | 0.925 |
| c1cc(-c2cnn3cc(-c4ccc(N5CCNCC5)cc4)cnc23)c2cccnc2c1 | 0.122 | 0.17 |
| CON(Cc1ccc(F)cc1)C(=O)/C=C(\O)C(=O)O | 0.942 | 0.968 |
| CCCCC(CC)COC(=O)C=Cc1ccc(OC)cc1 (centres undefined) | 1.09 | 1.14 |
| CCCC(C(=O)O)c1c(C)nc2ccc(Cl)cc2c1-c1ccccc1 (centres undefined) | 1.02 | 0.957 |

| Structure (SMILES) | PER2::LUC luminescence (time after treatment 24 h) | PER2::LUC luminescence (time after treatment 30 h) |
| --- | --- | --- |
| COC(=O)c1c(C)[nH]c(C)c1C(=O)c1ccccc1Cc1ccccc1 | 0.992 | 0.83 |
| O=C1O/C(=C/Br)CCC1c1cccc2ccccc12 (centres undefined) | 1.02 | 1.04 |
| CCCCN(Cc1ccc(C(=O)NO)cc1)C(=O)Nc1ccccc1 | 0.455 | 0.837 |
| COC(=O)N[C@H](C(=O)N1CCC[C@H]1c1ncc(-c2ccc(-c3ccc(-c4cnc([C@@H]5CCCN5C(=O)[C@@H](NC(=O)OC)C(C)C)[nH]4)cc3)cc2)[nH]1)C(C)C | 0.672 | 0.674 |
| CC(C(=O)O)c1cccc(C(=O)c2ccccc2)c1 (centres undefined) | 0.655 | 1.01 |
| Nc1nc(N)c2nc(CNc3ccc(C(=O)N[C@@H](CCC(=O)O)C(=O)O)cc3)cnc2n1 | 0.809 | 0.637 |
| O=NN(CCCl)C(=O)NCCCl | 0.958 | 0.982 |
| CCOC(=O)c1ncn2c1CN(C)C(=O)c1cc(F)ccc1-2 | 1.01 | 1.01 |
| COc1cc(/C=C/c2ccc(O)cc2)cc(OC)c1 | 1.03 | 0.93 |
| NCC(O)(CS(=O)(=O)O)c1ccc(Cl)cc1 (centres undefined) | 1.12 | 1.18 |
| CC[C@H](NC(=O)c1c(C)c(-c2ccccc2)nc2ccccc12)c1ccccc1 | 1.01 | 0.887 |
| CNC(=O)c1ccccc1Nc1nc(Nc2ccc(N3CCOCC3)cc2OC)ncc1Cl | 0.37 | 0.217 |
| CC1=C(C(=O)Nc2cc3cn[nH]c3cc2F)C(c2ccc(C(F)(F)F)cc2)CC(=O)N1 (centres undefined) | 0.741 | 0.877 |
| CO/S(=N\S(=O)(=O)c1ccc(Cl)cc1)c1ccc([N+](=O)[O-])cc1 (centres undefined) | 0.994 | 1.22 |
| Cc1cc(C)c2c(c1)[C@@H](N(Cc1cc(C(F)(F)F)cc(C(F)(F)F)c1)c1nnn(C)n1)CCCN2C[C@H]1CC[C@H](C(=O)O)CC1 | 1.13 | 1.19 |
| Cn1c(C#N)ccc1-c1ccc2c(c1)C(C)(C)OC(=S)N2 | 0.558 | 0.575 |
| CC1=C(/C=C/C(C)=C/C=C/C(C)=C/C=C/C=C(C)/C=C/C=C(C)/C=C/C2=C(C)C(=O)CCC2(C)C)C(C)(C)CCC1=O | 0.908 | 0.963 |
| Cn1c(=O)n(-c2ccc(C(C)(C)C#N)cc2)c2c3cc(-c4cnc5ccccc5c4)ccc3ncc21 | 0.194 | 0.233 |
| CC1(C)CC23C(=O)CCC(O)C2(C)CCC13 (centres undefined) | 0.96 | 0.967 |
| CCOC(=O)C1=C(C)NC(C)=C(C(=O)OCC)C1c1ccccc1/C=C/C(=O)OC(C)(C)C | 0.994 | 0.996 |
| CCOc1cc(CC(=O)N[C@@H](CC(C)C)c2ccccc2N2CCCCC2)ccc1C(=O)O | 0.961 | 0.997 |

| Structure (SMILES) | PER2::LUC luminescence (time after treatment 24 h) | PER2::LUC luminescence (time after treatment 30 h) |
| --- | --- | --- |
| O=C(O)C(Cc1c[nH]c2ccccc12)N1C(=O)c2ccccc2C1=O (centres undefined) | 1.08 and 0.907 | 1.04 and 0.907 |
| COc1cc2c(cc1OC)C1(O)C(=O)c3ccc(O)c(C(=O)O)c3OC1CO2 (centres undefined) | 1 | 0.915 |
| CCC(C(N)=O)c1ccccc1 (centres undefined) | 1 | 0.904 |
| C#C[C@]1(O)CC[C@H]2[C@@H]3CCc4cc(O)ccc4[C@H]3CC[C@@]21C | 0.981 and 0.937 | 1.09 and 0.892 |
| NC(CCCP(=O)(O)O)C(=O)O (centres undefined) | 1.06 | 0.968 |
| NCCCC[C@H](NC(=O)[C@@H]1CCCN1C(=O)[C@@H]1CSSC[C@H](N)C(=O)N[C@@H](Cc2ccccc2)C(=O)N[C@@H](Cc2ccccc2)C(=O)N[C@@H](CCC(N)=O)C(=O)N[C@@H](CC(N)=O)C(=O)N1)C(=O)NCC(N)=O | 1.08 | 1.13 |
| Cc1occc(=O)c1O | 0.968 and 1 | 0.995 and 0.951 |
| CC#CC(=O)Nc1ccc2ncnc(Nc3cccc(Br)c3)c2c1 | 0.486 | 0.447 |
| O=S(=O)(c1ccccc1)N(CC(F)(F)F)c1ccc(C(O)(C(F)(F)F)C(F)(F)F)cc1 | 1.22 | 1.18 |
| O=C(O)c1ccc(N2C(=O)/C(=C\c3ccc(-c4ccc([N+](=O)[O-])cc4)o3)C=C2c2ccccc2)cc1 | 0.882 | 0.902 |
| CC(C)=CC1C(CO)C1(C)C (centres undefined) | 1.15 | 1.12 |
| C[C@H](NC[C@H](O)CP(=O)(O)CC1CCCCC1)c1ccc(Cl)c(Cl)c1 | 1 | 0.968 |
| Nc1nc2c(ncn2COCCO)c(=O)[nH]1 | 1.18 and 0.969 | 0.843 and 0.929 |
| CC1(C)C(=O)[C@H]2C[C@]3(O)C4=CC(=O)O[C@@H](c5ccoc5)[C@@]4(C)CCC3[C@](C)(C2=O)[C@H]1CC(=O)O (some centres undefined) | 1.01 | 0.911 |
| NCCSSCCN | 0.939 | 0.882 |
| Cc1cc(NC2CCCCC2)nc(-n2nc(C)cc2C)n1 | 0.916 | 0.814 |
| CC(C)(C)NC(=O)[C@@H]1C[C@@H]2CCCC[C@@H]2CN1C[C@@H](O)[C@H](Cc1ccccc1)NC(=O)[C@H](CC(N)=O)NC(=O)c1ccc2ccccc2n1 | 0.894 and 0.795 | 0.994 and 0.933 |
| COc1ccc2[nH]c([S@@+]([O-])Cc3ncc(C)c(OC)c3C)nc2c1 | 1.02 and 1.01 and 1.11 | 1.01 and 0.923 and 1.08 |
| Cc1cc(N2CCOCC2)cc2[nH]c(-c3c(NC[C@@H](O)c4cccc(Cl)c4)cc[nH]c3=O)nc12 | 0.165 | 0.173 |
| CC(C)NCC(O)c1ccc(O)c(O)c1 (centres undefined) | 1.14 and 0.997 and 1.11 | 0.981 and 0.873 and 1.07 |
| O=c1cc(-c2ccccc2O)oc2cc(O)ccc12 | 1.27 | 1.38 |

| Structure (SMILES) | PER2::LUC luminescence (time after treatment 24 h) | PER2::LUC luminescence (time after treatment 30 h) |
| --- | --- | --- |
| CCCCCN(CCCCC)C(=O)C(CCC(=O)O)NC(=O)c1ccc(Cl)c(Cl)c1 (centres undefined) | 0.931 | 0.981 |
| COc1c(N2C[C@@H]3CCCN[C@@H]3C2)c(F)cc2c(=O)c(C(=O)O)cn(C3CC3)c12 | 1.05 | 1.26 |
| COc1ccc(C(=O)c2ccccc2)c(O)c1 | 1.22 | 1.21 |
| CC(C)(C)c1ccc(C(=O)NC(=S)Nc2ccc(N)cc2)cc1 | 0.44 | 0.541 |
| CC1(C)CCC[C@]2(C)[C@H]3CC(=O)O[C@]3(C)CC[C@@H]12 | 0.623 | 1.15 |
| CC(=O)OCC(=O)[C@@]1(O)[C@H](C)C[C@H]2[C@@H]3CCC4=CC(=O)C=C[C@]4(C)[C@@]3(F)[C@@H](O)C[C@@]21C | 0.707 | 1.01 |
| CC1(C)C(=O)C=CC2(C)C1C=CC1(C)C2CCC2(C)C(c3ccoc3)OC(=O)C3OC312 (centres undefined) | 0.103 | 0.0382 |
| COc1ncnc(NS(=O)(=O)c2ccc(N)cc2)c1OC | 0.986 | 0.84 |
| C#CCCCCCCCCCCCC(O)CC(O)COC(C)=O (centres undefined) | 0.961 | 0.963 |
| O=C(c1ccc2c(c1)OCO2)N1CCCCC1 | 1 | 0.843 |
| COc1ccc(C(=O)CC(=O)c2ccc(C(C)(C)C)cc2)cc1 | 0.849 | 1.15 |
| OC(c1cc(C(F)(F)F)nc2c(C(F)(F)F)cccc12)C1CCCCN1 (centres undefined) | 0.783 and 0.621 | 0.864 and 0.642 |
| COc1ccc2c(c1)c(CC(=O)N1CCOCC1)c(C)n2C(=O)c1ccc(Cl)cc1 | 1.05 | 1.04 |
| NCC1CCN(c2nccc(-c3ccc4ccccc4c3)n2)CC1 | 0.584 and 0.557 | 0.666 and 0.629 |
| CO/N=C(\C(=O)N[C@@H]1C(=O)N2C(C(=O)[O-])=C(C[N+]3(C)CCCC3)CS[C@H]12)c1csc(N)n1 | 0.725 | 1.11 |
| Cc1coc2c1C(=O)C(=O)c1c-2ccc2c1CCCC2(C)C | 0.923 | 1.05 |
| Cc1cn2cc(C(=O)N(C)CCO)cc(N[C@@H]3CCOc4cccc(C)c43)c2n1 | 1.11 | 0.992 |
| COc1ccc(CCN2CCN(CCCc3ccccc3)CC2)cc1OC | 0.928 | 0.949 |
| CC[C@H]1OC(=O)C[C@@H](O)[C@H](C)[C@@H](O[C@@H]2O[C@H](C)[C@@H](O)[C@H](N(C)C)[C@H]2O)[C@@H](CCN2C[C@H](C)C[C@H](C)C2)C[C@@H](C)C(=O)/C=C/C(C)=C/[C@@H]1CO[C@@H]1O[C@H](C)[C@@H](O)[C@@H](OC)[C@H]1OC | 0.809 | 1.02 |
